# Measurements as given in the antibiotic and cytotoxicity screens of Wong et al. (2023).
# This is one part of the list.
# Tests used:
# HSkMC = human skeletal muscle cells; experiment: cytotoxicity call (relative viability < 0.9); conditions: 10 µM
# HepG2 = experiment: cytotoxicity call (relative viability < 0.9); conditions: 10 µM
# S. aureus RN4220 = experiment: growth inhibition call (relative growth <= 0.2); conditions: 50 µM
SMILES,cytotoxicity call (HSkMC),cytotoxicity call (HepG2),growth inhibition call (S. aureus RN4220)
COc1ccc(S(=O)(=O)Nc2ccc3c(c2)C(=O)N([C@@H](C)CO)C[C@H](C)[C@H](CN(C)C(=O)Nc2c(C)noc2C)O3)cc1,inactive,inactive,inactive
O=C(Nc1cccc2cccnc12)[C@@H]1[C@H](c2cc(Cl)cc(Br)c2)CC(=O)N1C(=O)OCc1ccccc1,inactive,active,inactive
C[C@@H]1CN([C@@H](C)CO)C(=O)c2cc(NC(=O)CCC(F)(F)F)ccc2O[C@@H](C)CCCCO[C@@H]1CN(C)CC1CCCCC1,inactive,inactive,inactive
C[C@H](CO)N1C[C@H](C)[C@@H](CN(C)S(=O)(=O)c2cccs2)Oc2ccc(NC(=O)CCCN(C)C)cc2CC1=O,inactive,inactive,inactive
O=c1[nH]c2cc(C(F)(F)F)c(N3CCOCC3)cc2n(CP(=O)(O)O)c1=O,inactive,inactive,inactive
Cc1ccc(S(=O)(=O)Nc2ccc3c(c2)C(=O)N([C@H](C)CO)C[C@H](C)[C@H](CN(C)S(=O)(=O)c2ccc(C)cc2)OCCCC[C@H](C)O3)cc1,inactive,inactive,inactive
CN1C(=O)c2cc(NC(=O)Nc3ccccc3F)ccc2OC[C@H]2O[C@@H](CC(=O)NCc3ccc(-c4ccccc4)cc3)CC[C@H]21,inactive,inactive,inactive
Cc1ccc(S(=O)(=O)Nc2cccc3c2O[C@H](CN(C)CC2CC2)[C@@H](C)CN([C@H](C)CO)C3=O)cc1,inactive,inactive,inactive
COc1ccc(C(=O)Nc2cccc(CN3C(=O)[C@@]4(O[C@@H](CC(=O)N5CCC[C@H]5CO)[C@H]([Si](C)(C)c5ccc(OC)cc5)[C@H]4C)c4ccccc43)c2)cc1,inactive,inactive,inactive
COc1cccc(S(=O)(=O)N2C[C@@H](O)COC[C@H]3O[C@@H](CC(=O)N4CCN(C)CC4)CC[C@@H]32)c1,inactive,inactive,inactive
C[C@@H]1CN([C@@H](C)CO)S(=O)(=O)c2ccc(C#CC3(O)CCCC3)cc2O[C@@H]1CN(C)C(=O)Nc1ccc(F)cc1,inactive,inactive,inactive
CNCCC(Oc1ccc(C(F)(F)F)cc1)c1ccccc1.Cl (configuration not stated),inactive,active,inactive
C[C@H](CO)N1C[C@H](C)[C@H](CN(C)C(=O)c2ccccc2)OCCCC[C@H](C)Oc2ccc(NC(=O)CCCCCC(=O)Nc3ccccc3N)cc2C1=O,inactive,inactive,inactive
C[C@@H]1CN([C@@H](C)CO)C(=O)Cc2cc(NC(=O)CCC(F)(F)F)ccc2O[C@@H]1CN(C)Cc1ccc(Cl)c(Cl)c1,inactive,active,inactive
C[C@@H]1CCCCO[C@@H](CN(C)Cc2ccc(C(F)(F)F)cc2)[C@H](C)CN([C@@H](C)CO)C(=O)c2cc(NC(=O)Nc3cccc4ccccc34)ccc2O1,inactive,inactive,inactive
CO[C@@H]1CN(C)C(=O)c2ccc(NC(=O)Nc3ccc(Cl)cc3)cc2OC[C@H](C)N(C(=O)Nc2c(C)noc2C)C[C@H]1C,inactive,inactive,inactive
COCC(=O)Nc1ccc2c(c1)OC[C@@H](C)N(Cc1ccccc1OC)C[C@@H](C)[C@@H](OC)CN(C)C2=O,inactive,inactive,inactive
COCC#Cc1ccc2c(c1)O[C@H](CN(C)C(=O)CN(C)C)[C@H](C)CN([C@H](C)CO)S2(=O)=O,inactive,inactive,inactive
CC(C)NC(=O)N(C)C[C@H]1Oc2ccc(NC(=O)CCN3CCOCC3)cc2C(=O)N([C@@H](C)CO)C[C@H]1C,inactive,inactive,inactive
COc1ccc(S(=O)(=O)N(C)C[C@H]2Oc3c(NS(C)(=O)=O)cccc3C(=O)N([C@@H](C)CO)C[C@@H]2C)cc1,inactive,inactive,inactive
OCc1ccccc1,inactive,inactive,inactive
CO[C@H]1O[C@H](CO)[C@@H](OC(=O)Nc2ccc(Br)cc2)[C@@H]2OC(=O)[C@H](Cc3cccc(Br)c3)C/C=C/C[C@@H](Cc3cccc(Br)c3)C(=O)O[C@@H]12,inactive,inactive,inactive
COc1ccc(NC(=O)Nc2ccc3c(c2)C(=O)N([C@H](C)CO)C[C@@H](C)[C@@H](CN(C)Cc2ccncc2)OCCCC[C@@H](C)O3)cc1,inactive,inactive,inactive
C[C@H](CO)N1C[C@H](C)[C@@H](CN(C)Cc2ccc(Cl)c(Cl)c2)OCc2ccccc2-c2ccccc2C1=O,inactive,inactive,inactive
